Laboratory results published in the supplement of paper PMC11417369.
± gives the standard deviation of the averaged measurements. The list shows a part of the results.

These sequences were tested on PfAP2-G AP2 domain (GST-tagged) (assay: gcPBM binding intensity (ln(normalized median fluorescence intensity)); higher = stronger DNA binding).
In short: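 An Agilent 4 × 180k array of primer-extended double-stranded 36-bp intergenic genomic probes, with negative controls, was incubated for 1 h with GST-tagged P. falciparum DNA-binding domains expressed in E. coli. Alexa488 anti-GST antibody detected bound protein, scanned at 488 nm. Binding intensity is the highest Masliner-normalised natural-log median intensity across replicate spots of either probe orientation.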

Sequence | gcPBM binding intensity (ln)
ATATTTGCATGTGGTAGTACATAACATTCTTTTACA [XGTACX_site8194] | 11.6 ± 1.1
ATATCTTATAATACGGTGCACTTGACATGAACAACT [GTGCAC_site9987] | 10.6 ± 0.48
AGAGAGAAAGCTATAACATGCAACAATTTTTTGAAA [TGCATGCA_site514] | 9.66 ± 0.15
ATATATAATTAATTTTGTACACATAAAAAAAAAAAT [XGTACX_site6647] | 11.4 ± 0.69
TTTATATATATAATATGTACACATAATAATAATACA [XGTACX_site4862] | 11.6 ± 0.91
AAATGACATTTCAAAAGTACATATTTAATTAATTAA [XGTACX_site2919] | 11.1 ± 0.73
AAAAAATATTAGACTTATAAAGCATAAAGGATATTA [GTGCAC_negctrl_site588] | 9.75 ± 0.13
AATTTATTATTTTATTGTACGTATTTTTTTTTTTAT [XGTACX_site2298] | 11.6 ± 0.81
CATATATAAATATATACACACATACATACATACATA [CACACA_site5988] | 9.96 ± 0.014
ATATTATAGTTATGAACATGCAAACATTACGAAATA [TGCATGCA_site54] | 10.1 ± 0.18
TTTATTTAAAAAGTTTGTACATATATATTATTTTGA [XGTACX_site6040] | 10.9 ± 0.56
GAATCATATTTAAACACACATACATATATATATATA [CACACA_site3352] | 9.92 ± 0.028
AATAAGTAACAAAATACACACATATATATAATTATA [CACACA_site1837] | 9.945 ± 0.064
TTTACATCCAAAAACTGTACACTTATTTTATAATTC [XGTACX_site5332] | 11.4 ± 0.73
ATATATATAATATGTAGTACTTTCCTCTCAAATCAT [XGTACX_site7766] | 11.2 ± 0.87
ATCAAAAATATAAAAAATATAAACAATTTATTATCA [CACACA_negctrl_site768] | 9.46 ± 0.13
TTCATTTTTTAAGCATCACACACGAAAGAACAAAGT [CACACA_site1122] | 10.5 ± 0.44
TTCATTATTATTAACATACACACGTGTTATATACAC [CACACA_site4112] | 10.01 ± 0.099
AAAAAATACAAGAAATGTACTCAAGCATATATTAAT [XGTACX_site3325] | 11.2 ± 0.67
TTTTTACTATAATTAAAATTAACAAAAGAAAATGAT [GTGCAC_negctrl_site52] | 9.97 ± 0.31
TTTAATAATATAATGTGTACTTAAAAATTTATATAT [XGTACX_site5821] | 11.4 ± 0.93
AAAAATATATAAGAGAGTACATAAAATAAATTAATT [XGTACX_site1534] | 11.3 ± 0.86
TCATAAATTAATAATACATGCATAATATTAAAATGT [TGCATGCA_site5] | 9.7 ± 0.014
TCATTTTATTATTCTACACACTTATCTATAATTACA [CACACA_site6168] | 10.2 ± 0.21
